This is an account of results in PMC12820563, “FoxP3 forms a head-to-head dimer in vivo and stabilizes its multimerization on adjacent microsatellites”.

This is one part of the list.

The target in this experiment is T1, MBP-FoxP1dN (Mus musculus, UniProt P58462 326-579).
T1 sequence: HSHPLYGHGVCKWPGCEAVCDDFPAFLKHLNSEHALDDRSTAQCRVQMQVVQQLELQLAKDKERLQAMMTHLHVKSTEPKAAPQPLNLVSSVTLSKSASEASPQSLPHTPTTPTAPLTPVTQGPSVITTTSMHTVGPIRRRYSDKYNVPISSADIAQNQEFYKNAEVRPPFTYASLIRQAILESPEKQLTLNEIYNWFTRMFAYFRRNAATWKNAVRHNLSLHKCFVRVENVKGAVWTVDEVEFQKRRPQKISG
Briefly: PD-seq (MBP pull-down with sequencing); 20 mM Tris-HCl pH 7.5, 100 mM NaCl, 1.5 mM MgCl2, 0.4 uM protein, 0.1 uM dsDNA library, 30 min, room temperature, amylose pull-down; high values mean tight binding. Particulars: protein: recombinant; tags: His6-MBP; chain copies: 2; dsDNA, one strand shown. In short, it runs like this:
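His6-MBP-tagged mouse FoxP3 or FoxP1 fragment lacking the N-terminus, expressed in E. coli, was mixed at 0.4 µM with 0.1 µM Klenow-filled double-stranded degenerate DNA library. Incubation was 30 min at room temperature in Tris pH 7.5 buffer with NaCl and MgCl2. Complexes were caught on amylose resin and washed three times; DNA was released with proteinase K, PCR-barcoded and Illumina-sequenced. Binding is reads-per-million enrichment, pull-down over input, with replicates pooled.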
As for “GATGATTGTTCTCCCAGCTGATGAATTGTTGTCGTCGAGTAAACAAATTTTCCTAATCTTTCTGTTCAAGCGCCATCTAC”, the binding signal was 2.33 RPM ratio (pull-down/input). As to “GATGATTGTTCTCCCAGCTGATGAATTTGGGTCGTCGAGTAAACAAATTTTCCTAATCTTTCTGTTCAAGCGCCATCTAC”, the binding signal was 0.832 RPM ratio (pull-down/input). As to “GATGATTGTTCTCCCAGCTGATGAATTGTCGCACTCGAGTAAACAAATTTTCCTAATCTTTCTGTTCAAGCGCCATCTAC”, the binding signal was 1.07 RPM ratio (pull-down/input). Turning to “GATGATTGTTCTCCCAGCTGATGAATTGAGTTTCTCGAGTAAACAAATTTTCCTAATCTTTCTGTTCAAGCGCCATCTAC”, the binding signal is 0.825 RPM ratio (pull-down/input). “GATGATTGTTCTCCCAGCTGATGAATTCCGAGGCTCGAGTAAACAAATTTTCCTAATCTTTCTGTTCAAGCGCCATCTAC”: the binding signal is 0.853 RPM ratio (pull-down/input). On to “GATGATTGTTCTCCCAGCTGATGAATTCATAGTTTCGAGTAAACAAATTTTCCTAATCTTTCTGTTCAAGCGCCATCTAC”, for which the binding signal is 0.933 RPM ratio (pull-down/input). Turning to “GATGATTGTTCTCCCAGCTGATGAATTCTTGATCTCGAGTAAACAAATTTTCCTAATCTTTCTGTTCAAGCGCCATCTAC”, the binding signal was 0.781 RPM ratio (pull-down/input). With “GATGATTGTTCTCCCAGCTGATGAATTCTTTGGCTCGAGTAAACAAATTTTCCTAATCTTTCTGTTCAAGCGCCATCTAC”, the binding signal is 0.81 RPM ratio (pull-down/input). In the case of “GATGATTGTTCTCCCAGCTGATGAATTTGTCCCTTCGAGTAAACAAATTTTCCTAATCTTTCTGTTCAAGCGCCATCTAC”, the binding signal is 1.01 RPM ratio (pull-down/input).

For the sequence “GATGATTGTTCTCCCAGCTGATGAATTGGGCGGATCGAGTAAACAAATTTTCCTAATCTTTCTGTTCAAGCGCCATCTAC”, the binding signal was 0.846 RPM ratio (pull-down/input). As to “GATGATTGTTCTCCCAGCTGATGAATTGAAACATTCGAGTAAACAAATTTTCCTAATCTTTCTGTTCAAGCGCCATCTAC”, the binding signal is 1.08 RPM ratio (pull-down/input).

For the sequence “GATGATTGTTCTCCCAGCTGATGAATTGTCAGTGTCGAGTAAACAAATTTTCCTAATCTTTCTGTTCAAGCGCCATCTAC”, the binding signal was 0.969 RPM ratio (pull-down/input). Turning to “GATGATTGTTCTCCCAGCTGATGAATTCTTTATCTCGAGTAAACAAATTTTCCTAATCTTTCTGTTCAAGCGCCATCTAC”, the binding signal is 0.879 RPM ratio (pull-down/input).

“GATGATTGTTCTCCCAGCTGATGAATTCTGGCATTCGAGTAAACAAATTTTCCTAATCTTTCTGTTCAAGCGCCATCTAC”: the binding signal was 1.03 RPM ratio (pull-down/input).

Take “GATGATTGTTCTCCCAGCTGATGAATTCCATTATTCGAGTAAACAAATTTTCCTAATCTTTCTGTTCAAGCGCCATCTAC”: the binding signal is 0.887 RPM ratio (pull-down/input).

“GATGATTGTTCTCCCAGCTGATGAATTATGCGCTTCGAGTAAACAAATTTTCCTAATCTTTCTGTTCAAGCGCCATCTAC”: the binding signal was 0.977 RPM ratio (pull-down/input).

Consider “GATGATTGTTCTCCCAGCTGATGAATTGCGTCCCTCGAGTAAACAAATTTTCCTAATCTTTCTGTTCAAGCGCCATCTAC”, for which the binding signal was 0.999 RPM ratio (pull-down/input). With “GATGATTGTTCTCCCAGCTGATGAATTGCACTCTTCGAGTAAACAAATTTTCCTAATCTTTCTGTTCAAGCGCCATCTAC”, the binding signal was 1.3 RPM ratio (pull-down/input).
